Measured values: publication PMC10711660, “An extended Tudor domain within Vreteno interconnects Gtsf1L and Ago3 for piRNA biogenesis in Bombyx mori” (The EMBO Journal, 2023)
Positions count from the first letter of the chain named. Names may count otherwise. These are yes or no findings as the source states them, for the method shown. For some of these results: Binding seen in cells or lysates may run through a third protein. Some results given as binding are weak or reduced against the parent protein; the word gives no strength. Where a sequence is shown, tags or fusion partners need not be part of it.

T1: HA‐tagged BmGtsf1L (Bombyx mori)
T1 sequence: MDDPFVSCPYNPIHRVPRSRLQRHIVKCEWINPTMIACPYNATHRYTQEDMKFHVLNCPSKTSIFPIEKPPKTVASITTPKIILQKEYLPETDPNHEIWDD

T2: BmGtsf1L‐eGFP Y88A (Bombyx mori)
T2 sequence: T1 sequence with Y88A

T3: BmGtsf1L‐eGFP W99A (Bombyx mori)
T3 sequence: T1 sequence with W99A

T4: full length (FL) BmGtsf1L‐eGFP (Bombyx mori)
T4 sequence: T1 sequence

T5: BmGtsf1L‐eGFP double point mutant (YW > AA) (Bombyx mori)
T5 sequence: T1 sequence with Y88A, W99A

T6: HA‐BmGtsf1L‐eGFP (Bombyx mori)
T6 sequence: T1 sequence

T7: GST‐BmVreteno‐L (Bombyx mori)
T7 construct: BmVreteno Long isoform, Bombyx mori; pGEX-6p vector, 3C site between GST and BmVreteno; the purified protein was associated with nucleic acids; also called GST‐3C‐BmVreteno; full‐length BmVreteno‐L; source: E. coli BL21 DE3 codon+, purified (GSTrap, gel filtration); not shown: GST, N-terminal, kept
T7 chain: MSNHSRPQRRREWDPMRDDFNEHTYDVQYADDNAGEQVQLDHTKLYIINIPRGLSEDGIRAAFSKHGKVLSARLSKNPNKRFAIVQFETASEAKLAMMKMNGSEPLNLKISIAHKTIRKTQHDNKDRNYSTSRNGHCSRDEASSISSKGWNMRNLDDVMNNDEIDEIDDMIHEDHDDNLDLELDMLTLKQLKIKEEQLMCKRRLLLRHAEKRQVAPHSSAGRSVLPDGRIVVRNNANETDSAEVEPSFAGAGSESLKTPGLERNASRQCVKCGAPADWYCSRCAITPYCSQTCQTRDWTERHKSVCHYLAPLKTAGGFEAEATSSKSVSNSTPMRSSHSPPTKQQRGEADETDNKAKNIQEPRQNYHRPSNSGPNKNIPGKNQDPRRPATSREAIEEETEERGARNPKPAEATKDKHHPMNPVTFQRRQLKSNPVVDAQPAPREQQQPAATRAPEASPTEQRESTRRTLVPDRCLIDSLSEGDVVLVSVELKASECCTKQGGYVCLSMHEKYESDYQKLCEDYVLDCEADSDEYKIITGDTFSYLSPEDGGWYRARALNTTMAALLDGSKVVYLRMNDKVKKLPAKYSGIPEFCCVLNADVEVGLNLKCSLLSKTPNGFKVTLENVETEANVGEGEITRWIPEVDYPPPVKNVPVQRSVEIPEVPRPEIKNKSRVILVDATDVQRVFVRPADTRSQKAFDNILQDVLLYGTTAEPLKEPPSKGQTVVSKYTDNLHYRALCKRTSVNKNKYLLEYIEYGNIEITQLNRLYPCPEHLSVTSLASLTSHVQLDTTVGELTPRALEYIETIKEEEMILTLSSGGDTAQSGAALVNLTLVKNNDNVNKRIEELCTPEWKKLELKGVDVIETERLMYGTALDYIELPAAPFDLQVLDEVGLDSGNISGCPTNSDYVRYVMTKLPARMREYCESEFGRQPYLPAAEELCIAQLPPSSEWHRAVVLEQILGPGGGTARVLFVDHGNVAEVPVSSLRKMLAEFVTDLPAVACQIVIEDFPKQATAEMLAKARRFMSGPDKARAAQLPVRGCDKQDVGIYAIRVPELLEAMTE

B1: endogenous BmAgo3 (protein, UniProt A9ZSZ2 1-926)
chain: MADPGKGRGRSLALLQALKKSQMMDSPSQSESQSPESTPEQSTAPSTIASATPSTSGVSIGGRGRAAALMLAKMQQKPGSTTPAIFVPPSSTSAPTAGTGRGFKLLQNLQASQKASSQIASSQVTSSAQSDIKDLTEKMSETSVSAQASSVAKNKYFREVKDTPPVVKKGETGVPIEVTCNYIYLNFKENIVFEYEVKFEPDQDYKHLRFKLLNEHIEHFKEKTFDGTTLYVPHELPDAVRNLVSTNPYDQSKVNVSIIFRRTRRLSEMIHIYNVMFKCIMKDLKLIRFGRQHYNEHAAIQIPQHKLEVWPGYVTAVDEYEGGLMLTLDSTHRVLRTQTVLSLIKEVVQTEGANWKRKMTDILIGASVMTTYNKKLFRVDTIDDKMSPRSTFEKTEKGETVQISFIDYYKKNYGIEIMDWDQPLLISRDTKRMPGSDTPTDFMICLIPELCQLTGLTDDQRSNFRLMKDVATYTRITPNQRHAAFKKYIESVMKNETAKSRLAGWGLSIAPETVNLTARTLPPETLYFGDNVRVPGKPNAEWNSEVTKHSVMQAVDIMRWVLLFTQRDKQVAMDFLSTLKRNCRPMGIMVSDAELVPLANDRTDTYVLALKKCITSSVQLVVAICSTKRDDRYAAIKKVCCADNPVPSQVINARTLMNTNKIRSITQKILLQLNCKLGGTLWSISIPFKSAMIVGIDSYHDPSRRNRSVCSFVASYNQSMTLWYSKVIFQEKGQEIVDGLKCCLVDALTHYLRSNGQLPDRIIIYRDGVGDGQLKLLQQYEIPQMKICFTILGSNYQPTLTYVVVQKRINTRIFLKSRDGYDNPNPGTVVDHCITRRDWYDFLIVSQKVTQGTVTPTHYVVVYDDSGITPDQCQRLTYKMCHLYYNWPGTVRVPAPCQYAHKLSYLVGQCVHAQPSDVLVDKLFFL
B2: His‐BmGtsf1L‐W99A (protein)
chain: T1 sequence with W99A

Legend:
[1] = biological target: T1, HA‐tagged BmGtsf1L (Bombyx mori); experiment: co-IP; anti-HA magnetic beads, lysate of BmN4 cells transiently transfected with HA-BmGtsf1L (with FLAG-tagged partners or alone); IP-150 buffer (150 mM KOAc, 0.1% Igepal), overnight 4°C; with or without RNase A/T1; Western blot
[2] = biological target: T2, BmGtsf1L‐eGFP Y88A (Bombyx mori); experiment: co-IP; GFP-IP on extracts of BmN4 cells transfected with BmGtsf1L-eGFP full length, deletion variants or alanine mutants; HA-eGFP as control; Western blot of endogenous BmVreteno and BmAgo3
[3] = biological target: T3, BmGtsf1L‐eGFP W99A (Bombyx mori); experiment: as above
[4] = biological target: T4, full length (FL) BmGtsf1L‐eGFP (Bombyx mori); experiment: as above
[5] = biological target: T5, BmGtsf1L‐eGFP double point mutant (YW > AA) (Bombyx mori); experiment: as above
[6] = biological target: T6, HA‐BmGtsf1L‐eGFP (Bombyx mori); experiment: co-IP; GFP-Trap magnetic agarose or control beads, lysate of BmN4 cells stably expressing HA-BmGtsf1L-eGFP; also after dsRNA knock-down of luciferase, BmAgo3 or BmVreteno; IP-150 buffer, overnight 4°C; Western blot
GST‐BmVreteno‐L = biological target: T7, GST‐BmVreteno‐L; experiment: condition: 10 μM of His‐BmGtsf1L with 5 μM of GST‐BmVreteno; pull-down; GSH pull-down: 5 μM GST-BmVreteno (or fragment, variant) on Glutathione Sepharose 4B with 10 μM His-BmGtsf1L, 2 h 4°C, PBS with 0.1% Triton-X100; SDS-PAGE, Coomassie (Fig 5G also anti-His Western blot); both purified

| Binder | binding [1] | binding [2] | binding [3] | binding [4] | binding [5] | binding [6] | binding (GST‐BmVreteno‐L) |
| --- | --- | --- | --- | --- | --- | --- | --- |
| B1 | binds | binds | binds | binds | binds | binds |  |
| B2 |  |  |  |  |  |  | no binding |
